Test results published in the supplement of paper PMC11417369.
± gives the standard deviation of the averaged measurements. The list shows a part of the results.

System: PfAP2-LT AP2 domain (GST-tagged)
Assay: gcPBM binding intensity (ln(normalized median fluorescence intensity)); higher = stronger DNA binding
Summary of the method: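 GST-tagged P. falciparum DNA-binding domains produced in E. coli were incubated for 1 h on an Agilent 4 × 180k array of primer-extended double-stranded 36-bp intergenic genomic probes with negative controls. Binding intensity is the highest Masliner-normalised natural-log median intensity across replicate spots of either probe orientation, with bound protein detected by Alexa488 anti-GST antibody at 488 nm.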

Sequence	gcPBM binding intensity (ln)
AATGGTTATAATATATGTACATATAAATATACTGAA [XGTACX_site8533]	8.84 ± 0.38
TATAAAATAAATAACAAAAAAAATAAAATAAAAATA [TGCATGCA_negctrl_site297]	8.6 ± 0.7
ATAAAACTTATTTAACGTACATATTTTATATACCTT [XGTACX_site5353]	8.79 ± 0.48
TTTTTTTTTTAGTATGAACACACATATATATTATAA [CACACA_site8957]	8.62 ± 0.47
AAAAAATACATCAAAAGAAACATATATATATATATA [GTGCAC_negctrl_site719]	9.885 ± 0.035
AAGAAGAAACAAAACACACACAGTCTTCTTTTCTAT [CACACA_site3088]	9.54 ± 0.42
TACAGAATTGTATATAGTACATAAAACAATATATAT [XGTACX_site7275]	8.88 ± 0.4
GTATATGAATAATATTTTATGGTAATTTTTTTTTTT [XGTACX_negctrl_site512]	8.34 ± 0.5
GGTGGTAAAAAACCTGCATGTCGAAATATTAAATAC [TGCATGCA_site33]	8.86 ± 0.5
AAAAAAAAAAAAAAGAGTACTCATATAAAAATATAA [XGTACX_site6551]	8.39 ± 0.49
TTTTTATAAAAAATTTACACTATATGACAGAAGTAA [XGTACX_negctrl_site481]	8.28 ± 0.33
ATAAATTAAAAACACACACACATCTGGATACCCCTA [CACACA_site5780]	9.77 ± 0.13
AATGAAAAGTAAAATACACACACATAATATAATTTA [CACACA_site8608]	9.41 ± 0.38
TGTGTAAAAATCATGGGTACACATTTTGATACCAAT [XGTACX_site1779]	9.02 ± 0.41
AAACTTGACGAACACACACACACATATATAAAAAAA [CACACA_site6494]	10.1 ± 0.4
TCTTTTTATGTTCTAGAGCATTTTATTATTTAACAT [CACACA_negctrl_site1699]	8.71 ± 0.52
ATACTATTTAAATGGGTGCTAAAAATAACAAAAATT	8.62 ± 0.42
ATATTTTTATATGAGGTGCATATAATGACAATTAAG	8.7 ± 0.39
GAAGTTAGTGTTGACTGTACATATATATGTATATAT [XGTACX_site7243]	8.99 ± 0.38

Sequence	gcPBM binding intensity (ln)
ATTTCTTTTTTTTTTTTTTTTAATGTAAAACATTTT [CACACA_negctrl_site1462]	8.49 ± 0.51
TTTTCTTTTTGTTCGTGTACACACATGAAATTTATA [XGTACX_site3301]	9.04 ± 0.35
AAACGTACATAATACACACACATGTATACATATAAA [CACACA_site2048]	9.49 ± 0.31
TTCCCCCCCAGACACACACACACATACATACCACAT [CACACA_site2305]	11.1 ± 0.77
AATCGAAATCGTGCACGGACACATGCAGTAGCCGAG [XGTACX_site6001]	9.06 ± 0.33
ATATATATACACAATAGTACGTGTAATATTATTATT [XGTACX_site2151]	8.9 ± 0.38
TATACCTATAAATACACACACATATATAAATAAATA [CACACA_site6730]	9.46 ± 0.28
AGGAAATTTTTTTTTTTTTTTTTTTTTTTTTTTTAC [TGCATGCA_negctrl_site170]	8.33 ± 0.42
ATAATATATAATATAGTGCATTATTTATTAATTAAT [GTGCAC_site9852]	8.61 ± 0.45
TGATTATAAAAGTAGGTGCTACAAAAATTACACATT [GTGCAC_site9530]	8.61 ± 0.51
ATAGATGTCTTCATATGTACATAAATTCAAGTATAT [XGTACX_site7492]	8.68 ± 0.3
TGATAAGTATACTAAAGTACATGAAAAATAACTTCC [XGTACX_site6908]	8.83 ± 0.41
TCCTAATGGTTTAATTGTACAAAAAAAAAAAATATA [XGTACX_site322]	8.35 ± 0.51
CAAAATATTATGAATTGTACATATTTTAAAACGTTT [XGTACX_site1614]	8.62 ± 0.43
ATGTAGAAGTAATGCACACATATGTATATATATATA [CACACA_site2494]	9.84 ± 0.37
GGTCTTTTTATGATATGTACTTATATAATATTATAT [XGTACX_site6458]	9.06 ± 0.35
AACAGCATGAAGTAAAGTACTAGTTTTATTTATTTA [XGTACX_site1116]	8.69 ± 0.49
TGGATGAGGACATACACACACACATAAGTTGATACA [CACACA_site3423]	9.66 ± 0.41
TTATATTTTAAGAAATGTACATGATATAATTATCAA [XGTACX_site8693]	8.35 ± 0.41

Sequence	gcPBM binding intensity (ln)
AATGAAAAGGAACATACACACCCCATATAAATATAT [CACACA_site7588]	9.62 ± 0.13
TATTTCTTATGAAGGACATGCAATATTATTTATCTC [TGCATGCA_site683]	8.65 ± 0.44
TTTTTTTTAATTTTCTGTACAAATTTATATATACTA [XGTACX_site4251]	8.54 ± 0.51
AAATAAAAATTACAAGCATGCATTTTCCTATTTGCA [TGCATGCA_site861]	8.64 ± 0.35
GTGTAAAAATTAAAGTGTACACATATATATATATAT [XGTACX_site2251]	9.48 ± 0.54
GAATCACTAATTTTTTTACACACCACAATTTAATTT [CACACA_site8311]	9.1 ± 0.4
TTTCGAATTAAAGCATGTGAAAATTTTCAAAAAATA [XGTACX_negctrl_site577]	8.43 ± 0.47
ATAATAATATAATATTCACACAATTGAAATAGTGTA [CACACA_site6083]	8.61 ± 0.4
ACAAAACATAATTGTTGTACAAAAAGAATTATATAT [XGTACX_site8422]	9 ± 0.54
TATAAATATACAAAGGTGCATAAAAAGTTATGTTTT [GTGCAC_site9832]	8.72 ± 0.44
TTTCTATAATATTCTACACACCAACAACAAACATAT [CACACA_site6409]	8.96 ± 0.28
TTTAAATATATTAATACACACACGATATGTACAAAA [CACACA_site539]	9 ± 0.4
AAAAAATTTTGAAATTGTACATATATAAAAAATATA [XGTACX_site2629]	8.47 ± 0.48
GAATAAATTGTATTGTGTACATATAAAAGCATCTAA [XGTACX_site8271]	8.8 ± 0.4
CTGTACACTTAAACGGTGCAAAAAGAAAAAAAAGAA	8.8 ± 0.54
GTTGGGTAATTCGTAACACACATAAAATATATATAA [CACACA_site3986]	8.88 ± 0.57
CACGCGCACCAACACACACACACACCCATATATATA [CACACA_site2204]	10.3 ± 0.4
TGCCTATGACATGAATGTACATTAAAATTAAATAAA [XGTACX_site7126]	8.59 ± 0.54
AGACATATTCTTTTTACACACTTGAATAAAAAATAT [CACACA_site1205]	8.64 ± 0.4
